Here are results for nine molecules from US20120208234A1 (KANEKA, published 2012).

The experiment addresses T1, human immunoglobulin G drug separated from human plasma (Gammagard, Baxter) (human).
T1 construct: also called human IgG
The experiment is described as follows: SPR, Biacore 3000; human IgG immobilized on CM5 chip, domain in flow; 25 C, pH 7.4; 1:1 fit.

B1: C-wild (other)
chain: GPLGSADNKFNKEQQNAFYEILHLPNLTEEQRNGFIQSLKDDPSVSKEILAEAKKLNDAQAPKC
notes: also called wild-type C domain of Protein A
B1 came in with a Ka of 7e+07 M⁻¹, an equilibrium dissociation constant (Kd) of 14 nM, a koff of 0.0021 s⁻¹ and an association rate constant (kon) of 145000 M⁻¹ s⁻¹.

B2: C-G29D (designed binder)
chain: GPLGSADNKFNKEQQNAFYEILHLPNLTEEQRNDFIQSLKDDPSVSKEILAEAKKLNDAQAPKC
Molecule B2 gave a Ka of 3.2e+07 M⁻¹, a dissociation constant Kd of 31 nM, an off-rate constant (koff) of 0.0031 s⁻¹ and an on-rate (kon) of 100000 M⁻¹ s⁻¹.

B3: C-G29V (designed binder)
chain: GPLGSADNKFNKEQQNAFYEILHLPNLTEEQRNVFIQSLKDDPSVSKEILAEAKKLNDAQAPKC
On to B3, for which the Ka was 3.3e+07 M⁻¹, the equilibrium dissociation constant (Kd) came out at 31 nM, the koff turned out to be 0.0036 s⁻¹ and the kon worked out at 119000 M⁻¹ s⁻¹.

B4: C-G29F (designed binder)
chain: GPLGSADNKFNKEQQNAFYEILHLPNLTEEQRNFFIQSLKDDPSVSKEILAEAKKLNDAQAPKC
With B4, the Ka is 4.9e+07 M⁻¹, the Kd was 21 nM, the off-rate constant (koff) worked out at 0.0028 s⁻¹ and the association rate constant (kon) was determined as 134000 M⁻¹ s⁻¹.

B5: C-G29L (designed binder)
chain: GPLGSADNKFNKEQQNAFYEILHLPNLTEEQRNLFIQSLKDDPSVSKEILAEAKKLNDAQAPKC
In turn, B5 showed a Ka of 3.5e+07 M⁻¹, an equilibrium dissociation constant (Kd) of 28 nM, a koff of 0.0037 s⁻¹ and an on-rate (kon) of 131000 M⁻¹ s⁻¹.

B6: C-G29T (designed binder)
chain: GPLGSADNKFNKEQQNAFYEILHLPNLTEEQRNTFIQSLKDDPSVSKEILAEAKKLNDAQAPKC
With B6, the Ka is 4.1e+07 M⁻¹, binding was put at a Kd of 24 nM, the off-rate constant (koff) stood at 0.003 s⁻¹ and the kon is 122000 M⁻¹ s⁻¹.

B7: C-G29Y (designed binder)
chain: GPLGSADNKFNKEQQNAFYEILHLPNLTEEQRNYFIQSLKDDPSVSKEILAEAKKLNDAQAPKC
B7 displayed a Ka of 5e+07 M⁻¹, a Kd of 20 nM, a koff of 0.0033 s⁻¹ and a kon of 162000 M⁻¹ s⁻¹.

B8: C-G29E (designed binder)
chain: GPLGSADNKFNKEQQNAFYEILHLPNLTEEQRNEFIQSLKDDPSVSKEILAEAKKLNDAQAPKC
The molecule B8 registered a Ka of 3.8e+07 M⁻¹, a dissociation constant Kd of 26 nM, an off-rate constant (koff) of 0.0033 s⁻¹ and a kon of 127000 M⁻¹ s⁻¹.

B9: C-G29I (designed binder)
chain: GPLGSADNKFNKEQQNAFYEILHLPNLTEEQRNIFIQSLKDDPSVSKEILAEAKKLNDAQAPKC
B9 yielded a Ka of 3.5e+07 M⁻¹, a Kd of 29 nM, an off-rate constant (koff) of 0.0033 s⁻¹ and a kon of 115000 M⁻¹ s⁻¹.
